Several values for one entry are separate records, joined by “and”; a condition that tells them apart may be missing. Identical values can stand only once. In all, about 390,000 compounds went through this assay and about 4,000 (1%) were called active. The inconclusive results got no clear call from the source; some entries with a clear call stand among them for comparison. Calls come from the whole dose curve; as a rule, active = well fitted inhibition curve with a large enough effect; inconclusive = small, poorly fitted or top-dose-only effect; inactive = no such curve, though single readings can be large or run the other way. Where the call is inconclusive, the potency comes from a doubtful curve fit. Some structures have more than one record in an assay (separate samples or runs), and their calls can disagree.
The compounds below were run against Thioredoxin reductase 1, cytoplasmic (Rattus norvegicus) (UniProt O89049) (assay: qHTS Assay for Inhibitors of Mammalian Selenoprotein Thioredoxin Reductase 1 (TrxR1): qHTS). Conditions: recombinant rTrxR1, NADPH fluorescence consumption, selenite substrate; series mostly up to 114 µM.
Method in brief: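 Rat TrxR1 (90 nM in the dispensed reagent) was pre-reduced with 400 uM NADPH for 5 min at room temperature, then incubated with compound for 15 min. After 400 uM selenite was added, NADPH fluorescence (Ex 340/Em 450 nm) was followed for 8 min.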
Note: nearly all actives have a fitted effect of over 65% in size.
Potency is the fitted concentration of half-maximal effect; tags give direction and shape of the fitted curve.

Chain of UniProt O89049 (O89049 whole entry, looked up): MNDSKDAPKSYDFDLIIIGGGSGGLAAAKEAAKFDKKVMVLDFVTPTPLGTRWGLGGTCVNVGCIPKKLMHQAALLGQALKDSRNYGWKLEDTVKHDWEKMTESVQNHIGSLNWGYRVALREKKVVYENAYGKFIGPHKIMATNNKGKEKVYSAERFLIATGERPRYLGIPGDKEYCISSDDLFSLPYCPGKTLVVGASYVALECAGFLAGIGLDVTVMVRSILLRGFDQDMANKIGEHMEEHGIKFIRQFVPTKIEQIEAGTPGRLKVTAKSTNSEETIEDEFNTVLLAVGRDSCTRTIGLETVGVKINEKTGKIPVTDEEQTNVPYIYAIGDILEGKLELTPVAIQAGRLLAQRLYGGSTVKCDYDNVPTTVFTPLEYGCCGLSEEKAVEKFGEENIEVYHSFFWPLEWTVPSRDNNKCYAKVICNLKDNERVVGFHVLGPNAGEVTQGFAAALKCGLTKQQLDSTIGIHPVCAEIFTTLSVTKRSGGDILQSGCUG

Q: Which Potency does the source give for O=C(c1ccc2c(Cl)c3c(nc2c1)CCCC3)N1CCN(c2ccccc2)CC1 here?
A: inconclusive: 8.91 µM [inhibitor, partial curve]

Q: With O=C(O)c1ccc2[nH]c3c(c2c1)CSCC3 as the compound, how does the Potency read?
A: inconclusive: 70.8 µM [inhibitor, partial curve]

Q: With O=C(CSc1ccccc1)NCc1ccco1 as the compound, how does the Potency read?
A: inconclusive: 50.1 µM [inhibitor, partial curve, poor fit]

Q: With C=CCNC(=S)NNc1nc2c(c(=O)[nH]1)C1(CCCCC1)Cc1ccccc1-2 as the compound, how does the Potency read?
A: inactive

Q: O=C(NCCF)C1Nc2ccc(OC(F)(F)F)cc2C2C=CCC12 (centres undefined) was tested. Which Potency did it give?
A: inconclusive: 39.8 µM [inhibitor, partial curve, poor fit]

Q: For CC[C@]12c3[nH]c4cc(-c5ccco5)ccc4c3CCN1C(=O)[C@@H](CC(=O)NCCCOC)C[C@@H]2C(=O)N1CCN(C(=O)c2ccco2)CC1, which Potency is on record?
A: inconclusive: 70.8 µM [inhibitor, partial curve]

Q: For CN1CCN(C(=O)c2cc3nc(-c4ccccc4)cc(-c4ccccc4)n3n2)CC1, which Potency is on record?
A: inconclusive: 70.8 µM [inhibitor, single point]

Q: With Cc1cccc(-c2n[nH]c(=S)n2/N=C/C=C/c2ccco2)c1 as the compound, how does the Potency read?
A: inconclusive: 35.5 µM [inhibitor, partial curve]

Q: How did the Potency turn out when Cc1coc(C)c1C(=O)CC1(O)C(=O)N(CCc2ccccc2)c2ccccc21 (centres undefined) was run?
A: inconclusive: 15.8 µM [inhibitor, full curve]

Q: Cc1nnc(NC(=O)c2nc(S(=O)(=O)Cc3ccccc3)ncc2Cl)s1 was tested. Which Potency did it give?
A: active: 12.6 µM

Q: With CCOC(=O)c1ccccc1Nc1cn(C(C)=O)c2ccccc12 as the compound, how does the Potency read?
A: inconclusive: 89.1 µM [inhibitor, single point]

Q: How did the Potency turn out when COc1ccccc1-[n+]1c(C)cc(/C=C2\Sc3ccccc3N2C)cc1C was run?
A: inactive

Q: How did the Potency turn out when CCOC(=O)CCCCC(=O)c1[nH]c(=O)[nH]c1C[n+]1ccc(C)cc1 was run?
A: inconclusive: 70.8 µM [inhibitor, single point]

Q: How did the Potency turn out when CCN(CC)C(=S)SSC(=S)N(CC)CC was run?
A: inconclusive: 29.9 µM [inhibitor, single point] and inconclusive: 13.4 µM [inhibitor, partial curve]

Q: Which Potency does the source give for CCc1ccccc1NC(=O)C1CCCN(c2ncnc3onc(-c4ccc(F)cc4)c23)C1 (centres undefined) here?
A: inconclusive: 79.4 µM [inhibitor, partial curve, poor fit]

Q: With O=C(CC1C(=O)NCCN1Cc1cccc(F)c1)NC1CCCCC1 (centres undefined) as the compound, how does the Potency read?
A: inconclusive: 89.1 µM [inhibitor, single point]

Q: COc1cc(C(c2c(O)nc(SC)[nH]c2=O)c2c(O)nc(SC)[nH]c2=O)cc(OC)c1OC was tested. Which Potency did it give?
A: inconclusive: 17.8 µM [inhibitor, full curve]

Q: With COC(=O)c1ccc(N2NC(=O)/C(=C/c3cc(OC)c(O)c(OC)c3)C2=O)cc1 as the compound, how does the Potency read?
A: inconclusive: 56.2 µM [inhibitor, partial curve]

Q: How did the Potency turn out when CCOC(=O)C1=C(C)N(c2ccccc2)C(=O)C1 was run?
A: inconclusive: 70.8 µM [inhibitor, partial curve]

Q: How did the Potency turn out when COc1cccc(-c2nc3c(c(SCc4ccccc4)n2)Cc2c(CO)cnc(C)c2O3)c1 was run?
A: inactive

Q: With NC(=O)c1c(NC(=O)COC(=O)c2ccc(S(=O)(=O)Nc3ccccc3)cc2)sc2c1CCCC2 as the compound, how does the Potency read?
A: inactive

Q: Cc1ccc(CNC(=O)N[C@@H](Cc2ccccc2)C(=O)O)cc1 was tested. Which Potency did it give?
A: inconclusive: 89.1 µM [inhibitor, partial curve, poor fit]

Q: How did the Potency turn out when CC(=O)c1c(C)[nH]c(C(=O)Nc2nc(-c3ccc(Cl)cc3)cs2)c1C was run?
A: inactive

Q: For O=C(c1ccc(NC(=S)Nc2ccc(Cl)c(Cl)c2)cc1)N1CCCC1, which Potency is on record?
A: inconclusive: 22.4 µM [inhibitor, single point]

Q: For Cc1ccc2ccc(C(Nc3ccccn3)c3ccccc3)c(O)c2n1 (centres undefined), which Potency is on record?
A: inconclusive: 56.2 µM [inhibitor, partial curve] and inconclusive: 10 µM [inhibitor, full curve]

Q: Which Potency does the source give for C=CCN=c1sc(C(=O)OC)cc(=O)n1CC=C here?
A: inconclusive: 28.2 µM [inhibitor, partial curve, poor fit]

Q: N#C/C(=C\c1ccc(N2CCOCC2)o1)c1ccccc1 was tested. Which Potency did it give?
A: active: 3.55 µM

Q: O=c1cc(-c2ccccc2)oc2cc(O)cc(O)c12 was tested. Which Potency did it give?
A: inactive

Q: With O=C(O)/C=C/S(=O)(=O)c1ccc2ccccc2c1 as the compound, how does the Potency read?
A: active: 11.2 µM

Q: With CCOc1ccc(-n2c(C)cc(C(=O)CCl)c2C)cc1 as the compound, how does the Potency read?
A: inconclusive: 22.4 µM [inhibitor, single point]

Q: How did the Potency turn out when O=C(NC(=S)Nc1cccc(O)c1)C1CCCCC1 was run?
A: inconclusive: 3.16 µM [inhibitor, full curve, poor fit]

Q: With Cc1ccc(Cl)cc1N1CCN(C(=O)c2cn(C3CCCCC3)c(=O)c3c2c2ccccc2n3C)CC1 as the compound, how does the Potency read?
A: inactive

Q: For O=C(c1cc2ccccc2o1)N(Cc1ccco1)Cc1cccs1, which Potency is on record?
A: inconclusive: 17.8 µM [inhibitor, full curve, poor fit]

Q: Which Potency does the source give for CCCCn1c(-c2nonc2N)nc2ccccc21 here?
A: inactive

Q: Which Potency does the source give for O=C(NC1(C(F)(F)F)C(=O)Nc2c1c(=O)[nH]c(=O)n2Cc1ccccc1)c1ccc(Cl)cc1Cl (centres undefined) here?
A: inconclusive: 8.91 µM [inhibitor, partial curve]

Q: Which Potency does the source give for Cc1cc(C(=O)CSc2nc(N)cc(N)n2)c(C)n1CCc1ccc(F)cc1 here?
A: inactive

Q: For CCCN(C(=O)CCl)C1=CCCCC1, which Potency is on record?
A: inconclusive: 22.4 µM [inhibitor, partial curve]

Q: For CC(=O)Nc1c2c(nn1-c1ccc(C)cc1C)CSC2, which Potency is on record?
A: inconclusive: 39.8 µM [inhibitor, single point]

Q: How did the Potency turn out when O=C(NCc1ccccn1)c1ccc(Cn2cc(Br)cn2)o1 was run?
A: inconclusive: 44.7 µM [inhibitor, partial curve]

Q: How did the Potency turn out when CCOC(=O)/C=C1\CC(C(=O)OCC)Oc2c(OC)cccc21 (centres undefined) was run?
A: active: 28.2 µM

Q: For CCc1nn(CC(=O)NCCN2CCOCC2)c(=O)c2cc3c(OC)cccc3n12, which Potency is on record?
A: inactive

Q: For Cc1nc2oc3ccccc3c(=O)c2cc1C(=O)O, which Potency is on record?
A: inactive

Q: CN(Cc1ccccc1)c1ccc(C(=O)O)cc1[N+](=O)[O-] was tested. Which Potency did it give?
A: inactive

Q: Which Potency does the source give for CC(C)c1[nH]nc2c1C(Cc1ccccc1)C(C#N)=C(N)O2 (centres undefined) here?
A: active: 17.8 µM

Q: With COCCNC(=O)c1ccc(CS(=O)(=O)c2c(Cl)cccc2Cl)o1 as the compound, how does the Potency read?
A: inactive

Q: For O=c1c2c3c(sc2nnn1Cc1ccc(Br)cc1)CCCC3, which Potency is on record?
A: inactive

Q: Which Potency does the source give for O=C(Nc1nnc(-c2ccco2)s1)C1CC1 here?
A: inconclusive: 35.5 µM [inhibitor, partial curve]

Q: Which Potency does the source give for CC(=O)OCCCNc1cc(Sc2ccc(Cl)cc2)c2nonc2c1[N+](=O)[O-] here?
A: active: 3.16 µM

Q: Which Potency does the source give for O=C1OC(Nc2ccc3c(c2)OCO3)c2ccccc21 (centres undefined) here?
A: inconclusive: 22.4 µM [inhibitor, partial curve]

Q: With Cc1ccc(-n2nnnc2Sc2ccc(S(=O)(=O)NCCN(C)C)cc2[N+](=O)[O-])cc1 as the compound, how does the Potency read?
A: inconclusive: 0.158 µM [inhibitor, full curve, poor fit]

Q: CSc1nc(-c2ccccc2)nn1C(=O)c1ccccc1 was tested. Which Potency did it give?
A: inconclusive: 50.1 µM [inhibitor, partial curve]

Q: Which Potency does the source give for CCOC(=O)C1CCN(C(=O)c2cc3cc4ccc(C)cc4nc3o2)CC1 here?
A: inactive

Q: NC(=O)C1CCN(Cc2nnnn2Cc2ccco2)CC1 was tested. Which Potency did it give?
A: inconclusive: 35.5 µM [inhibitor, single point]

Q: How did the Potency turn out when O=C1C=CC(=O)N1c1cccc2cccnc12 was run?
A: active: 56.2 µM

Q: CC(=O)c1ccc(NC(=S)Nc2ccc3[nH]c(=O)[nH]c3c2)cc1 was tested. Which Potency did it give?
A: inconclusive: 70.8 µM [inhibitor, partial curve]

Q: Which Potency does the source give for Cn1c(C(=O)O)cc2c(=O)n3ccccc3nc21 here?
A: inconclusive: 100 µM [inhibitor, single point]

Q: How did the Potency turn out when Cc1ccccc1N(CC(=O)NCC1CCCO1)C(=O)C1(C)CC(=O)N=C2C=CC=CN21 (centres undefined) was run?
A: inconclusive: 63.1 µM [inhibitor, single point]

Q: For Cc1ccc(N(CC(=O)NCc2ccco2)S(=O)(=O)c2ccccc2)cc1, which Potency is on record?
A: inconclusive: 22.4 µM [inhibitor, full curve]

Q: How did the Potency turn out when O=C(CS(=O)c1ccccc1[N+](=O)[O-])Oc1ccc(Br)cc1 (centres undefined) was run?
A: inconclusive: 25.1 µM [inhibitor, full curve, poor fit]

Q: Which Potency does the source give for CCc1ccc2[nH]c(=O)c(C(c3nnnn3Cc3ccco3)N3CCC(C)CC3)cc2c1 (centres undefined) here?
A: inconclusive: 56.2 µM [inhibitor, partial curve, poor fit]

Q: Which Potency does the source give for CCOC(=O)C1CCCN(S(=O)(=O)c2ccc3[nH]c(=O)ccc3c2)C1 (centres undefined) here?
A: inactive

Q: How did the Potency turn out when O=C1Cc2ccccc2C(=O)N1c1ccccc1 was run?
A: inconclusive: 50.1 µM [inhibitor, partial curve, poor fit]

Q: How did the Potency turn out when CCC(=O)Nc1cccc(NC(=S)NC(=O)c2cccs2)c1 was run?
A: inconclusive: 14.1 µM [inhibitor, full curve, poor fit]

Q: Cc1ccccc1N1CCN(C(=O)c2ccccc2NC(=O)/C=C\C(=O)O)CC1 was tested. Which Potency did it give?
A: inconclusive: 28.2 µM [inhibitor, partial curve, poor fit]

Q: C=CCn1c(SCC(=O)c2ccccc2)nnc1-c1ccc2c(c1)OCO2 was tested. Which Potency did it give?
A: inconclusive: 89.1 µM [inhibitor, single point]

Q: How did the Potency turn out when Cc1ccc(/C=c2\sc3nc(-c4cccnc4)nn3c2=O)cc1 was run?
A: inconclusive: 79.4 µM [inhibitor, single point]

Q: With O=C(O)/C=C/C(=O)c1ccc(O)cc1 as the compound, how does the Potency read?
A: active: 17.8 µM

Q: Which Potency does the source give for Cc1cccc(N2Cc3ccc(Br)cc3C2)c1 here?
A: inconclusive: 31.6 µM [inhibitor, partial curve, poor fit]

Q: CCCCn1nnc(N(C(=O)c2cccs2)C(=O)c2cccs2)n1 was tested. Which Potency did it give?
A: inconclusive: 35.5 µM [inhibitor, partial curve, poor fit]

— PubChem BioAssay AID588453 (National Center for Advancing Translational Sciences (NCATS), 2011)
